Here are results for one molecule from article PMC1831776, “Structure and characterization of a novel chicken biotin-binding protein A (BBP-A)” (BMC Structural Biology, 2007).

This assay concerns the target T1, avidin isolated from chicken egg-white (wtAVD) (chicken), P02701.
T1 chain: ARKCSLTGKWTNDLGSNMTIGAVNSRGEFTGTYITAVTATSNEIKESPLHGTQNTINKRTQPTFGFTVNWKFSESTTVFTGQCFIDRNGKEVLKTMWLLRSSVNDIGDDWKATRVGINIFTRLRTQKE
Description: SEC; gel filtration, Superdex 200 10/300 GL, 50 mM NaPO4, 650 mM NaCl, pH 7.0; samples without BTN and after 15 min with 0.22 mM BTN; apparent masses from standard proteins. To be noted: remark: other sources report otherwise. For orientation: SEC sorts molecules by how far they enter the pores of the column.

B1: avidin isolated from chicken egg-white (wtAVD), P02701 25-152 (natural protein)
chain: T1 chain
For orientation: stoichiometry N means the number of molecules, sites or subunits per partner or assembly. As to B1, the stoichiometry N came out at 4.
